In PubChem BioAssay AID1030 (National Center for Advancing Translational Sciences (NCATS), 2008):
“And” between values parts separate entries of the source, which are not always exact repeats. Equal entries are not always repeated. In all, about 220,000 compounds went through this assay and about 16,000 (7.3%) were called active. The shares of active, inactive and inconclusive entries below differ from those in the screen. The call rests on the fitted dose curve; in most records, active means well fitted inhibition curve with a large enough effect (not every such curve was filed as active); inconclusive means small, poorly fitted or top-dose-only effect, or another doubt; inactive means no such curve, though single readings can be large or run the other way. Potencies of inconclusive entries are left out as doubtful fits.

Target: Aldehyde dehydrogenase 1A1 (Homo sapiens) (UniProt P00352)
Experiment: qHTS Assay for Inhibitors of Aldehyde Dehydrogenase 1 (ALDH1A1);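 on activity, negative = inhibition: plate controls were no enzyme wells and a reference inhibitor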
Settings: Purified ALDH1A1, NADH fluorescence, propionaldehyde substrate; series mostly up to 75.3 µM
Potency means the concentration at half of the fitted maximal effect; tags describe the fitted curve by direction and shape.

UniProt P00352, sequence (P00352 whole entry, looked up): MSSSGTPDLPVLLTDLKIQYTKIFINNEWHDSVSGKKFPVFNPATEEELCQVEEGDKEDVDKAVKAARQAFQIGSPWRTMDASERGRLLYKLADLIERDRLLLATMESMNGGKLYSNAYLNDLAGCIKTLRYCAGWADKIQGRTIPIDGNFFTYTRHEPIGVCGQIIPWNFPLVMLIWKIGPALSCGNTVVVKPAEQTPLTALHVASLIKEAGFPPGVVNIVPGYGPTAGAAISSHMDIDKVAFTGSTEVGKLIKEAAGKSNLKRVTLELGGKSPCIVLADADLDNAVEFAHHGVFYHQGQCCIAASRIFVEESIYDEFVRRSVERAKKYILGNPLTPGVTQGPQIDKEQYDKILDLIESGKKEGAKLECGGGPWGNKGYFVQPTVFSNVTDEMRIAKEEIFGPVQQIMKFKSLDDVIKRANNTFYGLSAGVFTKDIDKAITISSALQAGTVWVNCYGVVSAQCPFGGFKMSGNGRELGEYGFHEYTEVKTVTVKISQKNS

Row | SMILES | Potency | activity, negative = inhibition
1 | COc1ccc(S(=O)(=O)Nc2cc3c4c(oc3c3ccccc23)CC(C)(C)CC4=O)cc1 | active: 3.16 µM | –
2 | CC(C)CN(CCCNC(=O)CC1Oc2ccccc2NC1=O)CC(C)C (stereo not given) | inactive | –
3 | O=C(N/N=C/c1ccc2c(c1)OCO2)c1cc(-c2ccccc2Cl)nc2ccccc12 | inconclusive [inhibitor, single point] | –
4 | Cc1cc(-c2csc(NC(=O)c3cccc(S(=O)(=O)N(C)C)c3)n2)c(C)n1-c1ccccc1 | inconclusive [inhibitor, full curve] | –
5 | COc1ccc(C(=O)CSc2nnc(CNc3ccc(F)cc3)o2)cc1 | inconclusive [inhibitor, single point] | –
6 | COCCOC(=O)C1=C(C)NC2(O)c3ccccc3C(=O)C12O (stereo not given) | active: 11.2 µM | –
7 | C/C(=N\NC(=O)c1ccc(OC2CCCC2)cc1)c1ccc(C)s1 | inconclusive [inhibitor, single point] | –
8 | COc1ccc(-c2cc(C(=O)O)c3sc(N4CCCCC4)nc3n2)cc1OC | inconclusive [inhibitor, partial curve] | –
9 | N=c1c(C(=O)NCc2ccc(F)cc2)cc2c(=O)n3ccccc3nc2n1CC1CCCO1 (stereo not given) | inconclusive [inhibitor, partial curve] | –
10 | O=C(Cc1ccc(Cl)cc1Cl)Nc1cccc(S(=O)(=O)Nc2ccccc2F)c1 | active: 3.55 µM | –
11 | COc1ccccc1C1CC(c2ccco2)=NN1c1ccccc1 (stereo not given) | inconclusive [inhibitor, partial curve] | –
12 | NC(=O)CSc1nnc(Cc2cccs2)n1C1CCCCC1 | inconclusive [inhibitor, single point] | –
13 | Cc1cccc(Oc2ncnc(N)c2[N+](=O)[O-])c1C | inactive | –
14 | Cc1ccc(CNC(=O)c2sccc2-n2cccc2)cc1 | inconclusive [inhibitor, single point] | –
15 | Cc1ccc(Cn2c(=O)c3c(nc4n3CCN4Cc3ccco3)n(C)c2=O)cc1 | inconclusive [inhibitor, single point] | –
16 | COCCNC(=O)C(c1ccc(C)o1)N(CC1CCCO1)C(=O)Cn1nnc2ccccc21 (stereo not given) | inactive | –
17 | N#Cc1ccccc1NC(=O)Nc1cccc(Cl)c1 | inconclusive [inhibitor, single point] | –
18 | CCc1ccc(-n2c(C)cc(/C=N/NC(=O)c3ccncc3)c2C)cc1 | active: 7.94 µM | –
19 | COc1cc(OC)cc(-c2n[nH]c(=S)n2-c2cc(OC)ccc2OC)c1 | inconclusive [inhibitor, single point] | –
20 | O=C1/C(=C\c2ccc(O)c(O)c2)C(c2ccccc2)=NN1c1ccccc1 | inconclusive [inhibitor, single point] | –
21 | COc1cccc(-c2ccc3ncnc(NCc4ccccc4)c3c2)c1 | inconclusive [inhibitor, partial curve] | –
22 | CCOc1ccc(C(C)(C)C)cc1S(=O)(=O)N1CCOCC1 | active: 3.16 µM | –
23 | CN1/C(=C/C(=S)NC(=O)C2(C)CC2(Cl)Cl)C(C)(C)c2ccccc21 (stereo not given) | active: 3.98 µM | –

Row | SMILES | Potency | activity, negative = inhibition
24 | CCOC(=O)CC(NC(=O)Cn1nnc(-c2ccccc2)n1)c1ccc(OC)cc1 (stereo not given) | inactive | –
25 | Cc1cccc(Nc2nnc(SCC(=O)c3ccc(Br)s3)s2)c1C | inconclusive [inhibitor, single point] | –
26 | CC(=O)Nc1c(I)c(C(=O)N[C@H]2[C@@H](O)[C@H](O)[C@H](CO)O[C@@H]2O)c(I)c(N(C)C(C)=O)c1I | inactive | –
27 | CCn1c(SCC(N)=O)nnc1-c1cc2c(C)nn(-c3ccccc3)c2s1 | inconclusive [inhibitor, single point] | –
28 | CCOC(=O)C1CCN(C(=O)COc2ccc(N(C)S(=O)(=O)c3ccc(C)cc3)cc2)CC1 | active: 17.8 µM | –
29 | CC1=CC(=C2C(=O)c3ccccc3C2=O)C=C(C)N1C | inconclusive [inhibitor, single point] | –
30 | COC(=O)c1ccc2c(=O)n(CCCCCC(=O)N3CCN(c4ccc(F)cc4)CC3)c(=O)[nH]c2c1 | inconclusive [inhibitor, partial curve] | –
31 | COc1ccc(OC2C(O)COC2/C=C/C#Cc2ccc(F)cc2F)cc1 (stereo not given) | – | inactive: 3.6% [at 13.5 µM] and inactive: 5.45% [at 13.5 µM]
32 | CCOc1ccccc1-n1nnnc1SCC(=O)Nc1cc(C)on1 | active: 8.91 µM | –
33 | COc1cc(/C=C/C(=O)OCC(=O)Nc2cc(S(=O)(=O)N3CCCCC3)ccc2C)ccc1O | inconclusive [inhibitor, single point] | –
34 | Cc1cc(-c2ccc3ccccc3c2)n2ncnc2n1 | inconclusive [inhibitor, partial curve] | –
35 | CCn1c(SCc2cc(=O)[nH]c3ccccc23)nnc1C1CC1 | inconclusive [inhibitor, single point] | –
36 | COc1ccc(C(=O)CCN2CCN(c3ccccc3OC)CC2)cc1 | active: 0.141 µM | –
37 | COc1ccc(S(=O)(=O)N2CCCCC2)cc1NS(=O)(=O)c1cc(Cl)ccc1Cl | active: 2.24 µM | –
38 | COc1ccc(OC(C)C(=O)Nc2cccc([N+](=O)[O-])c2)cc1 (stereo not given) | inactive | –
39 | C#CCOC(=O)c1ccccc1C(=O)n1nnc2ccccc21 | inactive | –
40 | CCNc1ncc2nc(-c3cccs3)c(=O)n(CCc3ccccc3)c2n1 | inactive | –
41 | COc1cc(/C=N/NC(=O)C2C3CCCCC32C)cc(Br)c1O (stereo not given) | inconclusive [inhibitor, single point] | –
42 | O=C(Cn1nnc(-c2ccc(N3CCOCC3)cc2)n1)OC1CCCCC1 | inconclusive [inhibitor, partial curve] | –
43 | CC(NCc1ccccc1Cl)C(=O)Nc1ccc(S(=O)(=O)N2CCCC2)cc1 (stereo not given) | inconclusive [inhibitor, single point] | –
44 | COc1cc(/C=C2\CC/C(=C\c3cc(OC)c(O)c(OC)c3)C2=O)cc(OC)c1O | inactive | –
45 | Cc1ccc(C)c(Cn2nnc3c(=O)[nH]c(C(=O)Nc4ccc(F)cc4)nc32)c1 | inconclusive [inhibitor, single point] | –
